Experimental data reported in a collection of fitness landscapes (doi:10.1016/j.celrep.2020.107928).
In all, about 81,000 sequences were measured (“one-hybrid fitness for binding NBS DNA”: median about -0.1, highest 2% from about 0.36 on). The list shows a part of the results.

B1: Caulobacter ParB omega fusion; a variant is named by its letters at X, in order, B8GW30 (parent)
chain: MESVVVGEPGMSEGRRGLGRGLSALLGEVDAAPAQAPGEQLGGSREAPIEILQRNPDQPRRTFREEDLEDLSNSIREKGVLQPILVRPSPDTAGEYQIVAGERAWRAAQRAGLKTVPIMVRELDDLAVLEIGIIENVQRADLNVLEEALSYKVLMEKFERTQENIAQTIGKSXSHVANXMRLLXLPDEVQSYLVSGELTAXHARAIAAAADPVALAKQIIEGGLSVRETEALARKAPNLSAGKSKGGRPPRVKDTDTQALESDLSSVLGLDVSIDHRGSTGTLTITYATLEQLDDLCNRLTRGI

Variants of: B1
Experiment: one-hybrid fitness for binding NBS DNA (the Noc-binding site; scaled: cognate 1, non-cognate 0); higher = stronger binding
Settings: with NBS DNA site
Outline: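 In E. coli USO, a HIS3 reporter with its site placed 19 bp from the promoter was used to select Caulobacter ParB variants randomised at four specificity codons. Growth lasted 48 hours at 37°C on histidine-free M9 containing 0.1 mM IPTG and 5 mM 3-AT. Fitness was taken as the log change in variant-to-wild-type read ratio from Illumina sequencing of pre- and post-selection plasmids, rescaled between the non-cognate and cognate sites.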

one-hybrid fitness for binding NBS DNA, 0.591:
RRMA

one-hybrid fitness for binding NBS DNA, 0.368:
RQYR

one-hybrid fitness for binding NBS DNA, ≤ 0.2:
SVCT
YQAG
GTAM
PQIR
RYIF
PIWN
ADEG
RKPH
WPHR
WQQS
TMRC
YKQT
GPTK
RPPN
EPHW
AADS
LFRP
RKPP
ACLM
MPGR
APFC
RGQP
DFSM
RMVY
RDGP
MYEK
YKLQ
HKVS
CGGS
FPTL
PLCR
DLYN
SWRM
AIDI
YSTC
PKNT
DPRH
SVPF
KSTR
GAYS
LIKG
TCKF
MASF
SAAN
MALS
CGDA
PWLN
RQSG
LNPW
QGWT
PSGW
LRLI
HFSS
WPQG
QRWG
PILE
KPGR
HTLD
NESS
VSHF
KLIV
QFFT
GRKC
DIPV
PMDW
YRHC
HGPL
TENF
RTFC
LIYG
YFLT
GHMS
RSHF
MNFR
MKWS
QPRF
IHAT
HFNK
RISF
SPSI
IHMC
NNLI
PASY
IGRS
ARCV
MDIT
IPLV
DPVQ
PVTE
WGCR
QIYF
RTWE
VNHF

one-hybrid fitness for binding NBS DNA, 0.421:
QQNA

one-hybrid fitness for binding NBS DNA, 0.298:
RFTR
